Consider seven molecules from publication PMC5245867.

Amino acid sequences for entries named in this document (tags omitted). A change or cut given only in a name is not applied to a line headed by its entry. Chains listed by the source or under a name are the forms on record and can include a tag or linker. Residues count along the entry.
UniProt O35085: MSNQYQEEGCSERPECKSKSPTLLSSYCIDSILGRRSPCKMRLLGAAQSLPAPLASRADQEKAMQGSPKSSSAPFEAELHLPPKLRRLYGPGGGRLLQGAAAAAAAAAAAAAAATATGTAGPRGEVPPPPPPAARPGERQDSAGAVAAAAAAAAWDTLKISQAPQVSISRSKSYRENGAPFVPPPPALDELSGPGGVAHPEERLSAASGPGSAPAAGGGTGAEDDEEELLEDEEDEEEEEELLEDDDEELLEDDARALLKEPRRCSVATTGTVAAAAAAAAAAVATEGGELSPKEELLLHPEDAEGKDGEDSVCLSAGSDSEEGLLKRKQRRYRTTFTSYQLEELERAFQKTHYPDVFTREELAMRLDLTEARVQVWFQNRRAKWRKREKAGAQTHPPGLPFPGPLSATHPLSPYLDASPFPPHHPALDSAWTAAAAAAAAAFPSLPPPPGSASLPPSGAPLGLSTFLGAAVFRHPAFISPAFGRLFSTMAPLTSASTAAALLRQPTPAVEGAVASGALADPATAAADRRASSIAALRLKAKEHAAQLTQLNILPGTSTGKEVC
GST-ARX (1–220): residues 1-220 of O35085
GST-ARX (221–430): residues 221-430 of O35085
UniProt Q02248: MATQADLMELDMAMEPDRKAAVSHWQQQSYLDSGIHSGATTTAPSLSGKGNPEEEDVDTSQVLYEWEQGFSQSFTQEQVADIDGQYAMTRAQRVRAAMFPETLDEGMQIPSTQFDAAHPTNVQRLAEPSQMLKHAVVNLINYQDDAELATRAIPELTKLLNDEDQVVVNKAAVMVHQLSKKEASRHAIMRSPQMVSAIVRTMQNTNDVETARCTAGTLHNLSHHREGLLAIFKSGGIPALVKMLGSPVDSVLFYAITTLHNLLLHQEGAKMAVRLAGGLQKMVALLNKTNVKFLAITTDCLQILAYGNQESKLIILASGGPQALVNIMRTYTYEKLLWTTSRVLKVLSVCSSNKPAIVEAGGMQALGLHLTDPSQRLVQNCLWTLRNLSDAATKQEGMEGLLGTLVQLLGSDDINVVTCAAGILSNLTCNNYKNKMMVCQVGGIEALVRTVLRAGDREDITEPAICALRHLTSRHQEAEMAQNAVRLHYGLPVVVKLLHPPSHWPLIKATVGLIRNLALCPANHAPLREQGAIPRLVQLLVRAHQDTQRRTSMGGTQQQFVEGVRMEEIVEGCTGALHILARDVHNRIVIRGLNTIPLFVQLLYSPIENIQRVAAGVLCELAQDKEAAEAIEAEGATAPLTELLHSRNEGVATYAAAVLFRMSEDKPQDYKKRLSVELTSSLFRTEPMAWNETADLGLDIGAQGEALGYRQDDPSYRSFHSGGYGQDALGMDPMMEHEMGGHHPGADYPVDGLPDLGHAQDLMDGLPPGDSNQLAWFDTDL
GST-ΔN89-β-catenin (90–781): residues 90-781 of Q02248
GST-β-catenin (90–694): residues 90-694 of Q02248
GST-ΔN89-β-catenin-D164A (Q02248, form named): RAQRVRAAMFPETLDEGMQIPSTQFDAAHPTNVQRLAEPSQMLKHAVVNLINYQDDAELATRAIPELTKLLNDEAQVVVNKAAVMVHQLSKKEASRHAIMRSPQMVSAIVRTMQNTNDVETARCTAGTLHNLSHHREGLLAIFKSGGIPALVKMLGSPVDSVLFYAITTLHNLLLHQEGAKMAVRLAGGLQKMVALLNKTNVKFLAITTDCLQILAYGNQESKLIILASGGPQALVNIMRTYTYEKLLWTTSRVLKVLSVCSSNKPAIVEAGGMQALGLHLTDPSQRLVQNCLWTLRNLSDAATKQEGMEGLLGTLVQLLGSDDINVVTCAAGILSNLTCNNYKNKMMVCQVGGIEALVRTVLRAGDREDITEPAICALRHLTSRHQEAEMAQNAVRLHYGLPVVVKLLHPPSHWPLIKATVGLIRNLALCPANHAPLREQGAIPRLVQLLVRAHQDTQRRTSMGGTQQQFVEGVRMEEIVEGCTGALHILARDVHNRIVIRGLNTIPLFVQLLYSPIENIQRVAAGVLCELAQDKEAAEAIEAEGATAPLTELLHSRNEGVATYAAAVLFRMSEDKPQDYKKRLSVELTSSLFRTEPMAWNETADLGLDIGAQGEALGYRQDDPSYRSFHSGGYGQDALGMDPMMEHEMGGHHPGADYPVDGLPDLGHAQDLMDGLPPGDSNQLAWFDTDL
UniProt Q09472: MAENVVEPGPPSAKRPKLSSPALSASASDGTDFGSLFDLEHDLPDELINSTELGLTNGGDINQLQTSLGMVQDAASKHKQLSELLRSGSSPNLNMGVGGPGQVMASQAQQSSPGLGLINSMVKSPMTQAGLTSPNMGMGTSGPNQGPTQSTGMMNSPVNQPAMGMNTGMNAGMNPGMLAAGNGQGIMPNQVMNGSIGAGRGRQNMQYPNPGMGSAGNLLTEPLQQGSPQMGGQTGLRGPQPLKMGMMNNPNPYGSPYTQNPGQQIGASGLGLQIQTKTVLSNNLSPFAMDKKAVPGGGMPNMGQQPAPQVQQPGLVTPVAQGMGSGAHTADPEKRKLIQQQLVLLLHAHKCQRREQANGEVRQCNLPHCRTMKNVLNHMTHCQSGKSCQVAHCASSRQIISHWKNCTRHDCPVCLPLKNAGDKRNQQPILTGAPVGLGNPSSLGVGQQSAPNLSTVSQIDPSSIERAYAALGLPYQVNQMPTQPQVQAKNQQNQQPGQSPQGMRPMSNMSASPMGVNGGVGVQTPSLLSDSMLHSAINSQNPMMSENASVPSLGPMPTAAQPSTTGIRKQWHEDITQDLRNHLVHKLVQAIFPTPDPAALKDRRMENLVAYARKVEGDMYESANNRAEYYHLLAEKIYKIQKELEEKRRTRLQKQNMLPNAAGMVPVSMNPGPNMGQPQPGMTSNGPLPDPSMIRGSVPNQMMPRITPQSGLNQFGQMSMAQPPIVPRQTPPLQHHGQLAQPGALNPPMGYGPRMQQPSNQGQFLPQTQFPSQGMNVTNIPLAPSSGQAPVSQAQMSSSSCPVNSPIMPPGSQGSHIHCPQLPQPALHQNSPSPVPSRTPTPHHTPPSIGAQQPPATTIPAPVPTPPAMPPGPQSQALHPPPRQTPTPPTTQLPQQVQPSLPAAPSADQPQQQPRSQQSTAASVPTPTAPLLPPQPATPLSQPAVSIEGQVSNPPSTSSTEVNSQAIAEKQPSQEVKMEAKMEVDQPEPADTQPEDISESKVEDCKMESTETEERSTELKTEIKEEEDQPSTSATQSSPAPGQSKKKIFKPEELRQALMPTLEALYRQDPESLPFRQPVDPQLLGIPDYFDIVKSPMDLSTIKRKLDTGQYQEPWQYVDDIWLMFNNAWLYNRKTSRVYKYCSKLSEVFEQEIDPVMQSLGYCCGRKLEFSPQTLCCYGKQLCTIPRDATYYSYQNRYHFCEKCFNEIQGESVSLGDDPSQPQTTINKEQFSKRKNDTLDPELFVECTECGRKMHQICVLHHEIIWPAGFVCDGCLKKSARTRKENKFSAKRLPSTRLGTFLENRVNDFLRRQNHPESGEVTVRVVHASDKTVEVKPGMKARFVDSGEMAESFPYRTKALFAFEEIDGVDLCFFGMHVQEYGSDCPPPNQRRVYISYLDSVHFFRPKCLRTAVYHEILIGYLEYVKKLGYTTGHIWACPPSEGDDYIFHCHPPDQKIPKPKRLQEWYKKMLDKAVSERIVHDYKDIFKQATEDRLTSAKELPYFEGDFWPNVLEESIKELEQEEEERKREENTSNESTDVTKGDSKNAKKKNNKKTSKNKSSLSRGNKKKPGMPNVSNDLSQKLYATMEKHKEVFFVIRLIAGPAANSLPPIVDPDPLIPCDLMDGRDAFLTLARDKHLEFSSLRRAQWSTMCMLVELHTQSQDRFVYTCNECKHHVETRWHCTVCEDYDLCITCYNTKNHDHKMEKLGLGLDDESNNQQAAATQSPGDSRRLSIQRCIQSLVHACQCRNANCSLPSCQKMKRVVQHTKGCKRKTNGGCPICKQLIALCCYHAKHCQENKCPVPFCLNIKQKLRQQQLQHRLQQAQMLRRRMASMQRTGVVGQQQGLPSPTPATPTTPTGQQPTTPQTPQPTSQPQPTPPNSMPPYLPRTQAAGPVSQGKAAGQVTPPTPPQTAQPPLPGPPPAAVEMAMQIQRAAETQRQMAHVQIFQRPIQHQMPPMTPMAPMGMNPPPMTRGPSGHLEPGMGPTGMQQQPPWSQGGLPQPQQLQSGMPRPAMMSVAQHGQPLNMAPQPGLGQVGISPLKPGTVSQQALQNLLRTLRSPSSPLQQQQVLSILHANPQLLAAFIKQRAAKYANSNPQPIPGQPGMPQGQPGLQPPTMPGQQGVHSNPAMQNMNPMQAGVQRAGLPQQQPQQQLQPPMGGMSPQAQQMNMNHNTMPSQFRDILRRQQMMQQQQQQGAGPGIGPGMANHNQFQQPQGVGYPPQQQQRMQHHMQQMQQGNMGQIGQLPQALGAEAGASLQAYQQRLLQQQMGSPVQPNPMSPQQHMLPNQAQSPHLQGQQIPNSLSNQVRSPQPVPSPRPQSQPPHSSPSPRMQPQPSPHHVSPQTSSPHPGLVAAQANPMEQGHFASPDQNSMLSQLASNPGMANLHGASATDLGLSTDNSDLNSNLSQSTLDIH

Where two headings read alike, the source gives them in different places. No constants are given. Whether binding was seen depends on the method and setting. Binding seen in cells or lysates may run through a third protein. Some entries that bind do so weakly or less than the wild type. For some of these results: Where a sequence is shown, tags or fusion partners need not be part of it.

The target of test [1] is Aristaless related homeobox (ARX) protein (mouse (endogenous in E14.5 forebrain)) (UniProt O35085). Nature of the test: co-IP; E14.5 mouse forebrain lysates immunoprecipitated with ARX antibody, Western blot with β-catenin, LRRFIP2 and BCL9 antibodies; IgG control. (In western blotting, separated proteins are transferred to a membrane and probed.)
In test [2] the target is T1, GST-BCL9 (UniProt Q9D219).
T1 sequence: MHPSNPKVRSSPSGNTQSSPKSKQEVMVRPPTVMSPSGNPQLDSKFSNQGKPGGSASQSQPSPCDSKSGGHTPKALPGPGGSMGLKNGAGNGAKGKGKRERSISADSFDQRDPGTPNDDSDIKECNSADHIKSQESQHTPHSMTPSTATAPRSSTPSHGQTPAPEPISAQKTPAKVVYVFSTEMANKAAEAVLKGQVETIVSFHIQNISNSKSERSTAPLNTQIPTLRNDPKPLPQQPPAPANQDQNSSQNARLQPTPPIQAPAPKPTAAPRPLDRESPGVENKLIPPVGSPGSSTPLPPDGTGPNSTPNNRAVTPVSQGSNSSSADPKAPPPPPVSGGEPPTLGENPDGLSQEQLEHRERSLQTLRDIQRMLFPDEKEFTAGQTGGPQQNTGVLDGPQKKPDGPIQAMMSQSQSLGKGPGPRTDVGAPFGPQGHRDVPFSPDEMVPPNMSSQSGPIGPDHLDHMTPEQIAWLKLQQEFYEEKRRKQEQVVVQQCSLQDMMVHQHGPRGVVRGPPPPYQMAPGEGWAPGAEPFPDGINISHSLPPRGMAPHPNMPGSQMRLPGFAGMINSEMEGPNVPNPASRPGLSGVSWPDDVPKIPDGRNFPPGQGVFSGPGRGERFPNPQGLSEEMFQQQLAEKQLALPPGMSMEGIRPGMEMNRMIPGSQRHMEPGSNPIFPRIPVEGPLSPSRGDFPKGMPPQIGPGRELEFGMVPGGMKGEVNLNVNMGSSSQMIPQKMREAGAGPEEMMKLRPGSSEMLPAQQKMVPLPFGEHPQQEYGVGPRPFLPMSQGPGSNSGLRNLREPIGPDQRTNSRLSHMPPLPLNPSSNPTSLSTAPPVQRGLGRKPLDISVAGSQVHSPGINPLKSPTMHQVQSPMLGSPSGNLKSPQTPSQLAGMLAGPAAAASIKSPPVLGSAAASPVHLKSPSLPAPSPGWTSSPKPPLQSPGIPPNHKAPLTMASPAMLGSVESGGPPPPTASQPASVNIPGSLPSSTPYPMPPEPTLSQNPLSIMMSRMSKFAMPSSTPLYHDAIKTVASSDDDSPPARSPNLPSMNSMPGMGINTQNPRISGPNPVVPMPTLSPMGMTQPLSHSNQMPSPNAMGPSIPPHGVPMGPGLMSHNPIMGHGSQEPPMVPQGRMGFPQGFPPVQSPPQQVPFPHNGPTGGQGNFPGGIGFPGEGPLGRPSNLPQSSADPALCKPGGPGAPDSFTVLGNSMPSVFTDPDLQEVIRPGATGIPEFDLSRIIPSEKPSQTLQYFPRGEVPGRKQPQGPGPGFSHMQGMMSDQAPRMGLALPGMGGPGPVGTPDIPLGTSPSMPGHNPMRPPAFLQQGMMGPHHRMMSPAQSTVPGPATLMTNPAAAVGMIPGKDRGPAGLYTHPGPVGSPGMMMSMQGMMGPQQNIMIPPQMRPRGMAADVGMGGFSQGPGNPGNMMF
Nature of the test: pull-down; GST fusion and partner co-expressed in HEK293T/HEK293 cells, lysed in TNE buffer (20 mM Tris-HCl pH 7.4, 150 mM NaCl, 0.5% Triton X-100, 5% glycerol), glutathione-sepharose 4B 45 min on ice, five washes, Western blot.

Test [3] concerns the target GST-ΔN89-β-catenin (90–781) (mouse) (UniProt Q02248). The description is as above.
For test [4], the target named is GST-ΔN89-β-catenin-D164A (mouse) (UniProt Q02248). The test is described as above.
Test [5] deals with GST-β-catenin (1–781) (mouse) (UniProt Q02248). Described as above.
Test [6] addresses GST-β-catenin (90–694) (mouse) (UniProt Q02248). The description is as above.
In test [7] the target is GST-ARX (1–220) (UniProt O35085). The description is as above.
Test [8] concerns the target GST-ARX (221–430) (UniProt O35085). Described as above.
The target of test [9] is GST-ARX (WT) (UniProt O35085). Described as above.
For test [10], the target named is GST-ΔN89-β-catenin-D164A (mouse) (UniProt Q02248). The test is described as above. This is another data set of the same source.

Turning to “β-catenin (CTNNB1) (from UniProt Q02248 1-781)”, in [1], the binding result is given as “binds”.
For “ARX-MYC (full-length ARX) (from UniProt O35085 1-564)”, the binding entry in test [2], in [3], in test [4], in test [5] and in test [6] was “binds” in each case.
Consider “ARX (221–430)-MYC (from UniProt O35085 221-430) (domain or fragment)”, for which the binding result in test [2] is on record as “no binding”.
For “ARX (1–470)-MYC (from UniProt O35085 1-470) (domain or fragment)”, the binding result in [2] is reported as “binds”.
For P300-HA (from UniProt Q09472 1-2414), the binding result is “no binding” in [7], “no binding” in test [8] and “binds” in [9].

B1: BCL9-HA (protein, UniProt Q9D219 1-1425)
chain: MHPSNPKVRSSPSGNTQSSPKSKQEVMVRPPTVMSPSGNPQLDSKFSNQGKPGGSASQSQPSPCDSKSGGHTPKALPGPGGSMGLKNGAGNGAKGKGKRERSISADSFDQRDPGTPNDDSDIKECNSADHIKSQESQHTPHSMTPSTATAPRSSTPSHGQTPAPEPISAQKTPAKVVYVFSTEMANKAAEAVLKGQVETIVSFHIQNISNSKSERSTAPLNTQIPTLRNDPKPLPQQPPAPANQDQNSSQNARLQPTPPIQAPAPKPTAAPRPLDRESPGVENKLIPPVGSPGSSTPLPPDGTGPNSTPNNRAVTPVSQGSNSSSADPKAPPPPPVSGGEPPTLGENPDGLSQEQLEHRERSLQTLRDIQRMLFPDEKEFTAGQTGGPQQNTGVLDGPQKKPDGPIQAMMSQSQSLGKGPGPRTDVGAPFGPQGHRDVPFSPDEMVPPNMSSQSGPIGPDHLDHMTPEQIAWLKLQQEFYEEKRRKQEQVVVQQCSLQDMMVHQHGPRGVVRGPPPPYQMAPGEGWAPGAEPFPDGINISHSLPPRGMAPHPNMPGSQMRLPGFAGMINSEMEGPNVPNPASRPGLSGVSWPDDVPKIPDGRNFPPGQGVFSGPGRGERFPNPQGLSEEMFQQQLAEKQLALPPGMSMEGIRPGMEMNRMIPGSQRHMEPGSNPIFPRIPVEGPLSPSRGDFPKGMPPQIGPGRELEFGMVPGGMKGEVNLNVNMGSSSQMIPQKMREAGAGPEEMMKLRPGSSEMLPAQQKMVPLPFGEHPQQEYGVGPRPFLPMSQGPGSNSGLRNLREPIGPDQRTNSRLSHMPPLPLNPSSNPTSLSTAPPVQRGLGRKPLDISVAGSQVHSPGINPLKSPTMHQVQSPMLGSPSGNLKSPQTPSQLAGMLAGPAAAASIKSPPVLGSAAASPVHLKSPSLPAPSPGWTSSPKPPLQSPGIPPNHKAPLTMASPAMLGSVESGGPPPPTASQPASVNIPGSLPSSTPYPMPPEPTLSQNPLSIMMSRMSKFAMPSSTPLYHDAIKTVASSDDDSPPARSPNLPSMNSMPGMGINTQNPRISGPNPVVPMPTLSPMGMTQPLSHSNQMPSPNAMGPSIPPHGVPMGPGLMSHNPIMGHGSQEPPMVPQGRMGFPQGFPPVQSPPQQVPFPHNGPTGGQGNFPGGIGFPGEGPLGRPSNLPQSSADPALCKPGGPGAPDSFTVLGNSMPSVFTDPDLQEVIRPGATGIPEFDLSRIIPSEKPSQTLQYFPRGEVPGRKQPQGPGPGFSHMQGMMSDQAPRMGLALPGMGGPGPVGTPDIPLGTSPSMPGHNPMRPPAFLQQGMMGPHHRMMSPAQSTVPGPATLMTNPAAAVGMIPGKDRGPAGLYTHPGPVGSPGMMMSMQGMMGPQQNIMIPPQMRPRGMAADVGMGGFSQGPGNPGNMMF
In the case of B1, in [10], the binding result is “binds weakly”.

B2: B-cell CLL/lymphoma 9 (BCL9) (protein, UniProt Q9D219 1-1425)
chain: MHPSNPKVRSSPSGNTQSSPKSKQEVMVRPPTVMSPSGNPQLDSKFSNQGKPGGSASQSQPSPCDSKSGGHTPKALPGPGGSMGLKNGAGNGAKGKGKRERSISADSFDQRDPGTPNDDSDIKECNSADHIKSQESQHTPHSMTPSTATAPRSSTPSHGQTPAPEPISAQKTPAKVVYVFSTEMANKAAEAVLKGQVETIVSFHIQNISNSKSERSTAPLNTQIPTLRNDPKPLPQQPPAPANQDQNSSQNARLQPTPPIQAPAPKPTAAPRPLDRESPGVENKLIPPVGSPGSSTPLPPDGTGPNSTPNNRAVTPVSQGSNSSSADPKAPPPPPVSGGEPPTLGENPDGLSQEQLEHRERSLQTLRDIQRMLFPDEKEFTAGQTGGPQQNTGVLDGPQKKPDGPIQAMMSQSQSLGKGPGPRTDVGAPFGPQGHRDVPFSPDEMVPPNMSSQSGPIGPDHLDHMTPEQIAWLKLQQEFYEEKRRKQEQVVVQQCSLQDMMVHQHGPRGVVRGPPPPYQMAPGEGWAPGAEPFPDGINISHSLPPRGMAPHPNMPGSQMRLPGFAGMINSEMEGPNVPNPASRPGLSGVSWPDDVPKIPDGRNFPPGQGVFSGPGRGERFPNPQGLSEEMFQQQLAEKQLALPPGMSMEGIRPGMEMNRMIPGSQRHMEPGSNPIFPRIPVEGPLSPSRGDFPKGMPPQIGPGRELEFGMVPGGMKGEVNLNVNMGSSSQMIPQKMREAGAGPEEMMKLRPGSSEMLPAQQKMVPLPFGEHPQQEYGVGPRPFLPMSQGPGSNSGLRNLREPIGPDQRTNSRLSHMPPLPLNPSSNPTSLSTAPPVQRGLGRKPLDISVAGSQVHSPGINPLKSPTMHQVQSPMLGSPSGNLKSPQTPSQLAGMLAGPAAAASIKSPPVLGSAAASPVHLKSPSLPAPSPGWTSSPKPPLQSPGIPPNHKAPLTMASPAMLGSVESGGPPPPTASQPASVNIPGSLPSSTPYPMPPEPTLSQNPLSIMMSRMSKFAMPSSTPLYHDAIKTVASSDDDSPPARSPNLPSMNSMPGMGINTQNPRISGPNPVVPMPTLSPMGMTQPLSHSNQMPSPNAMGPSIPPHGVPMGPGLMSHNPIMGHGSQEPPMVPQGRMGFPQGFPPVQSPPQQVPFPHNGPTGGQGNFPGGIGFPGEGPLGRPSNLPQSSADPALCKPGGPGAPDSFTVLGNSMPSVFTDPDLQEVIRPGATGIPEFDLSRIIPSEKPSQTLQYFPRGEVPGRKQPQGPGPGFSHMQGMMSDQAPRMGLALPGMGGPGPVGTPDIPLGTSPSMPGHNPMRPPAFLQQGMMGPHHRMMSPAQSTVPGPATLMTNPAAAVGMIPGKDRGPAGLYTHPGPVGSPGMMMSMQGMMGPQQNIMIPPQMRPRGMAADVGMGGFSQGPGNPGNMMF
For B2, in test [1], the binding entry was “binds”.
